Screen size: about 43,000 compounds; about 200 (0.47%) were called active. Another 12% or so got no clear call; they are omitted. Calls follow the shape of the dose curve; as a rule, active = well fitted cell-killing curve with a large enough effect; inconclusive = small, poorly fitted or top-dose-only effect, or effect the other way; inactive = flat fitted curve, though single readings scatter. Some of the results follow.
Test: Cell viability qHTS assay in S16 Pmp22-F2sN cells; also: nearly all actives have a fitted effect of over 65% in size
Conditions: S16 Pmp22-F2sN Schwann cells (luciferase reporters placed in the Pmp22 gene) viability, CellTiter-Glo, 24 h; series mostly up to 57.5 µM; activity change, negative = cytotoxicity: at the top concentration
In short: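 CellTiter-Glo counter-screen, qHTS, 1536-well. Cells: S16(c9) Pmp22-F2sN, 500-1,000/well in DMEM + 10% FBS. Cpd 23 nL pin transfer, 24 h, 37C/5% CO2. Read: luminescence, CCD imager.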
% is scaled to controls: 0 for no effect and ±100 for the full control effect.

| Compound | activity change, negative = cytotoxicity |
| --- | --- |
| O=c1[nH]c(SCc2ccc(Br)cc2)nc2c1CCCC2 | inactive: 12.4% |
| Cc1ccc(S(=O)(=O)c2nnn3c2nc(N2CCN(c4ccccc4F)CC2)c2ccccc23)cc1C | inactive: -3.85% |
| COc1ccc(-n2c(=O)c3ccc(C(=O)NCc4ccc(C)cc4)cc3n(CC(=O)Nc3ccc(C)cc3)c2=O)cc1 | inactive: -0.358% |
| Cc1ccc(Cn2c(C(=O)O)c(CNCCc3ccco3)c3ccc(C)cc32)cc1 | inactive: 17.2% |
| CCOc1cc(-c2nc(-c3ccc(-c4ccc(OC)cc4)nc3OC)no2)cc(OCC)c1OCC | inactive: -2.52% |
| COCCCNC(=O)C1CCN(c2cc(C)nc3c(-c4ccc(OC)c(OC)c4)c(C)nn23)CC1 | inactive: -3.14% |
| COc1ccc(Cl)cc1NC(=O)c1nn(C)c2c1CS(=O)(=O)c1ccccc1-2 | inactive: 6.02% |
| COc1ccccc1NC(=O)CCn1c(=O)oc2cc(Cl)ccc21 | inactive: 5.95% |
| COc1ccc(-n2cc(C(=O)NCc3cccc(OC)c3)c3ccccc3c2=O)cc1 | inactive: 11.2% |
| CC(=O)c1ccc(N2CCN(C3C(=O)c4ccccc4N3C(C)=O)CC2)cc1 (stereo unspecified) | inactive: 13.2% |
| O=S(=O)(c1ccc(Br)cc1)c1nnn2c1nc(NCc1cccs1)c1sccc12 | inactive: 9.14% |
| COc1ccc(-c2cc(C(=O)NCCc3ccccc3)c3cc(C(C)C)ccc3n2)cc1 | inactive: -2.7% |
| Cc1c(Cl)cccc1NC(=O)CN1C(=O)CCn2nc(-c3cccn3C)cc21 | inactive: -19.9% |
| COCCN(CCOC)C(=O)c1cc2c(=O)n3ccccc3nc2n1C | inactive: 2.37% |
| CCOC(=O)C(Cc1c[nH]c2ccccc12)NC(=O)COc1ccc(Cl)cc1 (stereo unspecified) | inactive: 10.8% |
| CC(C)Oc1ccc(CNC(=O)CCCn2c(=O)c3cccn3c3cccnc32)cc1 | inactive: -14.7% |
| O=C(NCc1ccc2c(c1)CCN2C(=O)c1ccncc1)c1ccc(Cl)cc1 | inactive: 1.62% |
| Cc1ccc2c(=O)c(C(=O)c3ccccc3)cn(CC(=O)Nc3ccccc3)c2n1 | inactive: -23.8% |
| CCn1c(NCc2cccc(Cl)c2)nc2ccccc21 | inactive: 6.28% |
| COc1cc(-c2nc3ccc(C)cn3c2Nc2ccc(Cl)cc2)ccc1O | inactive: 3.44% |
| O=C(CSc1nc(-c2ccccc2)cn1-c1ccccc1)Nc1ccccc1 | inactive: -7.88% |
| COc1cccc(C(=O)NC2=NC(c3ccc(N(C)C)cc3)CC(=O)N2)c1 (stereo unspecified) | inactive: 18.8% |
| Cc1cccc(N2CCN(c3ccc(C(=O)O)cc3NC(=O)c3ccccc3F)CC2C)c1 (stereo unspecified) | inactive: -4.32% |
| Cn1c(=O)n(CCc2ccccc2)c(=O)c2c1nc1n2CCN1c1ccc(Cl)cc1 | inactive: 12.9% |

| Compound | activity change, negative = cytotoxicity |
| --- | --- |
| CCCCC(=O)Nc1ccc(C(=O)OCc2cc(=O)n3nc(C4CC4)sc3n2)cc1 | inactive: -3.46% |
| COC(=O)C1=C(c2ccccc2)c2ccccc2S(=O)(=O)N1CC(=O)Nc1ccccc1C(F)(F)F | inactive: 10.4% |
| COc1ccc(S(=O)(=O)Cc2ccc(C(=O)NC3CCCCC3)o2)cc1 | inactive: -5.77% |
| CC(C)CC(=O)Nc1c(C(=O)N2CCN(c3ccccc3F)CC2)oc2ccccc12 | inactive: 1.97% |
| Cc1cc(C)c2c(-n3cccc3)c(C(=O)NCCc3ccccc3)sc2n1 | inactive: 11.6% |
| CCN(CC)c1ccc(C(=O)NCc2ccc3c(c2)CCN3C(C)=O)cc1 | inactive: 9.53% |
| CC(=O)c1ccc(N2CCN(C(=O)Nc3cccc(F)c3)CC2)cc1 | inactive: -23% |
| CC(C(=O)Nc1ccccc1C(F)(F)F)n1nc(-c2ccccc2)c2c(c1=O)CCCC2 (stereo unspecified) | inactive: -4.67% |
| Clc1ccc(CSc2nc3ncccc3[nH]2)cc1 | inactive: -3.96% |
| CCCc1ccc(NC(=O)C2CCN(c3cnccn3)CC2)cc1 | inactive: -3.06% |
| O=C(Nc1nonc1-c1ccc(Br)cc1)c1ccco1 | inactive: -4.02% |
| COc1cccc(Cn2cc(S(=O)(=O)c3ccc(C)cc3)c(=O)c3cc4c(cc32)OCO4)c1 | inactive: -11% |
| COc1ccc(NC(=O)c2ccco2)cc1NC(=O)COc1ccc(C)cc1C | inactive: 0.275% |
| CSc1cccc(NC(=O)Cn2nnc(C(=O)NCCc3ccccc3)c2N)c1 | inactive: 0.698% |
| Cc1ccc(-c2nc3c4ccccc4n(Cc4cccc(Cl)c4)c(=O)n3n2)cc1 | inactive: 4.87% |
| COc1ccc(OC)c(CNC(=O)C2COc3ccccc3C2)c1 (stereo unspecified) | inactive: 2.9% |
| COc1ccc2nc(N3CCN(C(=O)c4ccco4)CC3)sc2c1 | inactive: 3.33% |
| CCOC(=O)Cc1ccc(NC(=O)N2CC(CC)Oc3ccccc32)cc1 (stereo unspecified) | inactive: 14.2% |
| CCN1CCN(CCCNC(=O)Cn2nc(C)n3c(cc4cc(C)ccc43)c2=O)CC1 | inactive: 12.4% |
| Cc1cccc(CN2C(=O)c3ccccc3S(=O)(=O)c3ccc(C(=O)N4CCN(c5cc(C)ccc5C)CC4)cc32)c1 | inactive: 12.9% |
| CCc1ccc(-c2cc3c(N4CCN(c5ccccc5)CC4)nccn3n2)cc1 | inactive: -5.12% |
| COc1cccc(C(=O)n2nc(-c3ccco3)nc2NCc2cccs2)c1 | inactive: 4.29% |
| COc1ccc(Br)cc1CNC(=O)c1ccc2c(c1)nc1n2CCCCC1 | inactive: 4.18% |
| Cc1c(C(=O)NCc2ccccc2Cl)sc2nc3n(c(=O)c12)CCC3 | inactive: 12.9% |

| Compound | activity change, negative = cytotoxicity |
| --- | --- |
| COc1ccc(N(CC(=O)NCc2ccc(C)cc2)S(=O)(=O)c2c(C)[nH]c(=O)[nH]c2=O)cc1 | inactive: 7.66% |
| Cc1cc(C)cc(N2CCn3c2nc2c3c(=O)n(CCc3ccccc3)c(=O)n2C)c1 | inactive: 3.96% |
| Cc1cccc(-c2nc3nc(C)cc(N4CCN(c5ccccc5)CC4)n3n2)c1 | inactive: 1.91% |
| COc1ccc(NC(=O)N2CCN(c3cc(-c4noc(C)n4)ccc3C)CC2)c(OC)c1 | inactive: -4.22% |
| CC(C)(C)C1CCc2c(sc(NC(=O)c3ccncc3)c2C(=O)Nc2ccccc2Cl)C1 (stereo unspecified) | inactive: -2.51% |
| COc1cccc(N2CCN(Cc3nnc(-c4ccc5c(c4)OCO5)o3)CC2)c1 | inactive: 1.09% |
| COc1ccc(NS(=O)(=O)c2ccc(NS(=O)(=O)c3ccc4c(c3)OCCO4)cc2)cc1 | inactive: 10.9% |
| CCOC(=O)c1c(C)oc2nc(C)nc(NC(C)c3ccccc3)c12 (stereo unspecified) | inactive: -4.89% |
| CC1=C(C(=O)OCc2ccc(C)cc2)C(c2ccccc2Cl)CC(=O)N1 (stereo unspecified) | inactive: 18.7% |
| Cc1cccc(OCC(=O)Nc2ccc3c(c2)nc(CCNC(=O)c2ccco2)n3C)c1 | inactive: 7.25% |
| Cc1nc2c3ccccc3nc(NNC(=O)CCC(=O)N3CCN(c4ccccc4)CC3)n2n1 | inactive: -2.15% |
| COc1ccc(CCNC(=O)CCc2c(C)nc3c(c(C)nn3-c3ccccc3)c2C)c(OC)c1 | inactive: 3.93% |
| Cc1ccc(OCc2ccc(-c3nc(C#N)c(N4CCC(C)CC4)o3)o2)cc1 | inactive: 1.51% |
| COc1ccc(-c2noc(N3CCN(c4cccc(C)c4C)CC3)n2)cc1OC | inactive: -17% |
| CCc1cccc(C)c1NC(=O)C(C)Sc1nc2c(c(=O)[nH]1)CCCC2 (stereo unspecified) | inactive: 1.72% |
| COc1ccccc1C(=O)Nc1nnc(SCc2cc(=O)n3ccc(C)cc3n2)s1 | inactive: 11.6% |
| Cc1cc(C)cc(NC(=O)c2sc3nc(-c4cc5ccccc5oc4=O)[nH]c(=O)c3c2C)c1 | inactive: 2.27% |
| COC(=O)c1c(C)sc(-c2c(-c3cccc(Cl)c3)[nH]c3c2c(=O)[nH]c(=O)n3C)c1O | inactive: -1.69% |
| COc1ccc(C(=O)CN2C(=O)N(c3cc(C)ccc3C)S(=O)(=O)c3ccccc32)cc1 | inactive: -7.51% |
| CCc1ccccc1NC(=O)C1CCN(C2=NS(=O)(=O)C(c3ccc(C)c(C)c3)=C2C)CC1 | inactive: -1.9% |
| CCOc1ccc(N(CC(=O)NCc2ccc(Cl)cc2)S(=O)(=O)c2c(C)noc2C)cc1 | inactive: 1.44% |
| Cc1ccc(C(=O)Nc2ccc(OCc3cc(=O)n4c5c(sc4n3)CCCC5)cc2)cc1 | inactive: -3.88% |
| Cc1c(NC(=O)c2ccc(N3CCC(C)CC3)c([N+](=O)[O-])c2)cccc1-c1nc2ccccc2o1 | inactive: -0.307% |
| Cc1cccc(N2CCN(C(=O)c3oc(=O)c4ccccc4c3-c3ccccc3)CC2)c1C | inactive: 11.6% |

| Compound | activity change, negative = cytotoxicity |
| --- | --- |
| COCCCNC(=O)C1CCC(Cn2c(=O)c3sccc3n(Cc3ccc(F)cc3)c2=O)CC1 (stereo unspecified) | inactive: -8.74% |
| Cc1cc(NC(=O)Nc2csc3c2CCCC3)ccc1Br | inactive: -2.66% |
| CCOc1ccc(N(CC)C(=O)CSc2n[nH]c(-c3ccccc3)n2)cc1 | inactive: 3.53% |
| Cc1ncc(CO)c2c1Oc1nc(-c3ccccc3)nc(SCC(=O)Nc3cccc(C(F)(F)F)c3)c1C2 | inactive: 4.89% |
| CCn1cc(C(=O)NCc2ccccc2Cl)c(=O)c2cc(S(=O)(=O)N3CCCCC3)ccc21 | inactive: -0.654% |
| Cc1ccccc1NC(=O)CN1C(=O)CCn2nc(-c3cccn3C)cc21 | inactive: -1.55% |
| Cc1sc2c(c1C)c(=O)n(-c1cccc(C(F)(F)F)c1)c(=O)n2Cc1ccccc1C#N | inactive: 29.9% |
| Cc1ccc(OCCCCn2c(CCNC(=O)C(C)(C)C)nc3ccccc32)cc1 | inactive: -9.67% |
| O=C(Cc1ccccc1)Nc1cccc(-c2nc3cccnc3s2)c1 | inactive: 9.63% |
| CC1=C(C(=O)Nc2cccnc2)C(c2ccccc2)n2nc(SCc3ccccc3F)nc2N1 (stereo unspecified) | inactive: -1.31% |
| COc1ccc(-c2coc3c2c(C)cc2oc(=O)cc(C)c23)cc1 | inactive: -2.81% |
| O=C(NC1CCCC1)c1ccc2c(c1)N(Cc1ccccc1F)C(=O)c1ccccc1S2 | inactive: -9.82% |
| O=C(CSc1n[nH]c(-c2ccccc2Cl)n1)N1CCN(c2ccccc2F)CC1 | inactive: -0.0053% |
| CCOC(=O)C1CCN(C(=O)Cn2ncc3c([nH]c4ccc(C)cc43)c2=O)CC1 | inactive: 19.3% |
| CC(=O)N1CCC2(CC1)OC(=O)C(C)=C2C(=O)Nc1ccccc1C(F)(F)F | inactive: 11.2% |
| Cc1cccc(N(CC(=O)NCCSc2ccc(Cl)cc2)S(=O)(=O)c2ccccc2)c1C | inactive: -21.4% |
| Cc1cccc(C(=O)Nc2nc(-c3ccc(Br)cc3)ns2)c1 | inactive: 6.85% |
| COc1cc(C(=O)N2CCc3c([nH]c4ccccc34)C2c2ccccc2)cc(OC)c1OC (stereo unspecified) | inactive: -28.6% |
| Cc1ccc(C)c(N2CCN(C(=O)c3cc(S(=O)(=O)N4CCCC4)cn3C)CC2)c1 | inactive: 2.97% |
| COc1ccccc1CCNC(=O)Cn1ccc2cc(S(=O)(=O)N3CCCCCC3)ccc21 | inactive: -26.9% |
| CCc1nnc(SCc2nc(-c3ccc(OC)cc3)oc2C)c2cc3sccc3n12 | inactive: 2.06% |
| CCOC(=O)C1CCC(CN(Cc2c(Cl)cccc2Cl)S(=O)(=O)c2ccc(F)cc2)CC1 (stereo unspecified) | inactive: -8.68% |
| CSc1ncc(C(=O)N2CCN(c3ccc(F)cc3)CC2)c(C)n1 | inactive: 11.6% |
| COc1ccc(N2CCN(C(=O)c3ccc4c(c3)CCN4S(C)(=O)=O)CC2)cc1 | inactive: -2.69% |
